Experimental data as given in the supplement of paper PMC4967469.
Lines with a small IC50 respond at low doses; fits outside the tested doses are given as limits. AUC is the area under the same curve over the 256-fold range up to the top dose, as a fraction; it is 1 without any effect and falls as sensitivity rises. A top dose marked as inferred comes from the curve model; the source does not state it. For some assays here: An entry number marks a drug with two screens in the source, which often give different values.

What was measured:
Assay in all cases: Viability of human cancer cell lines after 72 h of drug (GDSC screen)
Shikonin = compound: CC(C)=CC[C@@H](O)C1=CC(=O)c2c(O)ccc(O)c2C1=O [Shikonin]; details: top dose 16 µM; top dose inferred
Procedure: (§1)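 Human cancer cell lines in 384-well plates, medium with 10% serum, drug for 72 h over a 256-fold dose range (nine 2-fold or five 4-fold steps up to the top dose). Adherent lines were fixed and stained with the nucleic acid dye Syto60, suspension lines read with resazurin; signal relative to control wells, capped at 0 and 100%. One two-parameter sigmoid per drug and line, fitted in a mixed model over all curves with the slope shared within a line.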

CGP-082996 (CINK4) = compound: CCNc1cc(NC2CCC(O)CC2)nc(Nc2ccc3c(ccn3Cc3ccccc3)c2)n1 [CGP-082996 (CINK4)]; details: top dose 5.12 µM; top dose inferred
Procedure: as §1

HG-5-113-01 = compound: CNC(=O)c1ccc(Nc2cc(Nc3ccccc3S(=O)(=O)C(C)C)c3cc[nH]c3n2)nc1 [HG-5-113-01]; details: top dose 10 µM; top dose inferred
Procedure: as §1

A-770041 = compound: COc1cc(-c2nn([C@H]3CC[C@H](N4CCN(C(C)=O)CC4)CC3)c3ncnc(N)c23)ccc1NC(=O)c1cc2ccccc2n1C [A-770041]; details: top dose 5.12 µM; top dose inferred
Procedure: as §1

XMD8-85 = compound: COc1cc(N2CCN(C)CC2)ccc1Nc1ncc2c(n1)N(C)c1ccccc1C(=O)N2C [XMD8-85]; details: top dose 8 µM; top dose inferred
Procedure: as §1

BMS-536924 = compound: Cc1cc(N2CCOCC2)cc2[nH]c(-c3c(NC[C@@H](O)c4cccc(Cl)c4)cc[nH]c3=O)nc12 [BMS-536924]
Procedure: as §1

BIRB 0796 = compound: Cc1ccc(-n2nc(C(C)(C)C)cc2NC(=O)Nc2ccc(OCCN3CCOCC3)c3ccccc23)cc1 [BIRB 0796]; details: top dose 10 µM; top dose inferred
Procedure: as §1

SB-525334 = compound: Cc1cccc(-c2[nH]c(C(C)(C)C)nc2-c2ccc3nccnc3c2)n1 [SB-525334]; details: top dose 20 µM; top dose inferred
Procedure: as §1

VX-702 = compound: NC(=O)c1ccc(N(C(N)=O)c2c(F)cccc2F)nc1-c1ccc(F)cc1F [VX-702]; details: top dose 2 µM; top dose inferred
Procedure: as §1

Olaparib = compound: O=C(c1cc(Cc2n[nH]c(=O)c3ccccc23)ccc1F)N1CCN(C(=O)C2CC2)CC1 [Olaparib]
Procedure: as §1

Wee1 inhibitor 681640 = compound: O=C1NC(=O)c2c1c(-c1ccccc1Cl)cc1[nH]c3ccc(O)cc3c21 [Wee1 inhibitor 681640]; details: top dose 2 µM; top dose inferred
Procedure: as §1

[1] = top dose 4 µM, screen: GDSC drug entry 1091, top dose inferred
[2] = top dose 5.12 µM, screen: GDSC drug entry 62
[3] = top dose 5 µM, screen: GDSC drug entry 1017, top dose inferred
[4] = top dose 10 µM, screen: GDSC drug entry 1495

Cell Line	AUC (Shikonin)	IC50 (Shikonin)	AUC (CGP-082996 (CINK4))	IC50 (CGP-082996 (CINK4))	AUC (HG-5-113-01)	IC50 (HG-5-113-01)	AUC (A-770041)	IC50 (A-770041)	AUC (XMD8-85)	IC50 (XMD8-85)	AUC (BMS-536924; [1])	IC50 (BMS-536924; [1])	AUC (BMS-536924; [2])	IC50 (BMS-536924; [2])	AUC (BIRB 0796)	IC50 (BIRB 0796)	AUC (SB-525334)	IC50 (SB-525334)	AUC (VX-702)	IC50 (VX-702)	AUC (Olaparib; [3])	IC50 (Olaparib; [3])	AUC (Olaparib; [4])	IC50 (Olaparib; [4])	AUC (Wee1 inhibitor 681640)	IC50 (Wee1 inhibitor 681640)
KCL-22 (chronic myeloid leukaemia, suspension)	0.303	0.312 µM	0.938	> 5.12 µM	0.778	3.4 µM	0.66	0.82 µM	0.903	7.57 µM	0.991	> 4 µM	0.94	> 5.12 µM	0.982	> 10 µM	0.976	> 20 µM	0.991	> 2 µM	0.988	> 5 µM	0.988	> 10 µM	0.991	> 2 µM
KELLY (neuroblastoma, adherent)	0.39	0.515 µM	0.989	> 5.12 µM	0.734	2.69 µM	0.986	> 5.12 µM	0.957	> 8 µM	0.861	2.89 µM	0.911	> 5.12 µM	0.98	> 10 µM	0.871	16 µM	0.989	> 2 µM	0.951	> 5 µM	0.917	> 10 µM	0.756	0.627 µM
KGN (ovary, adherent)	0.515	1.11 µM	0.872	> 5.12 µM	0.742	3.64 µM	0.62	0.734 µM	0.758	3.34 µM	0.962	> 4 µM	0.65	0.916 µM	0.977	> 10 µM	0.698	5.13 µM	0.981	> 2 µM	0.981	> 5 µM	0.916	> 10 µM	0.848	2 µM
KINGS-1 (glioma, adherent)	0.759	7.63 µM	0.869	> 5.12 µM	0.864	> 10 µM	0.8	3.67 µM	0.951	> 8 µM	0.959	> 4 µM	0.865	> 5.12 µM	0.976	> 10 µM	0.981	> 20 µM	0.981	> 2 µM	0.981	> 5 µM	0.966	> 10 µM	0.953	> 2 µM
KM12 (large intestine, adherent)	0.452	0.73 µM	0.98	> 5.12 µM	0.778	4.42 µM	0.958	> 5.12 µM	0.858	7.52 µM	0.748	1.39 µM	0.272	0.0671 µM	0.978	> 10 µM	0.936	> 20 µM	0.986	> 2 µM	0.985	> 5 µM	0.983	> 10 µM	0.896	> 2 µM
KNS-42 (glioma, adherent)	0.701	4.15 µM	0.905	> 5.12 µM	0.811	6.63 µM	0.905	> 5.12 µM	0.893	> 8 µM	0.958	> 4 µM	0.919	> 5.12 µM	0.983	> 10 µM	0.971	> 20 µM	0.971	> 2 µM	0.984	> 5 µM	0.956	> 10 µM	0.969	> 2 µM
KP-N-YN (neuroblastoma, adherent)	0.759	6.09 µM	0.946	> 5.12 µM	0.682	2.13 µM	0.941	> 5.12 µM	0.986	> 8 µM	–	–	0.909	> 5.12 µM	0.851	8.82 µM	0.883	> 20 µM	0.987	> 2 µM	0.985	> 5 µM	0.985	> 10 µM	0.955	> 2 µM
KURAMOCHI (ovary, adherent)	0.657	2.93 µM	0.859	> 5.12 µM	0.866	> 10 µM	0.634	0.797 µM	0.948	> 8 µM	0.913	> 4 µM	0.846	4.63 µM	0.914	> 10 µM	0.973	> 20 µM	0.984	> 2 µM	0.984	> 5 µM	0.946	> 10 µM	0.982	> 2 µM
L-428 (Hodgkin lymphoma, suspension)	0.508	1.05 µM	0.966	> 5.12 µM	0.901	> 10 µM	0.959	> 5.12 µM	0.985	> 8 µM	0.992	> 4 µM	0.938	> 5.12 µM	0.993	> 10 µM	0.979	> 20 µM	0.988	> 2 µM	0.989	> 5 µM	0.992	> 10 µM	0.987	> 2 µM
LAN-6 (neuroblastoma, adherent)	0.677	3.44 µM	0.966	> 5.12 µM	0.874	> 10 µM	0.949	> 5.12 µM	0.877	> 8 µM	0.835	3.34 µM	0.431	0.2 µM	0.969	> 10 µM	0.874	> 20 µM	0.985	> 2 µM	0.985	> 5 µM	0.957	> 10 µM	0.968	> 2 µM
LB373-MEL-D (melanoma, adherent)	0.613	2.03 µM	0.952	> 5.12 µM	0.894	> 10 µM	0.907	> 5.12 µM	0.967	> 8 µM	0.971	> 4 µM	0.89	> 5.12 µM	0.969	> 10 µM	0.971	> 20 µM	0.99	> 2 µM	0.982	> 5 µM	0.983	> 10 µM	0.99	> 2 µM
LB771-HNC (head and neck, adherent)	0.748	6.3 µM	0.953	> 5.12 µM	0.77	4.75 µM	0.849	> 5.12 µM	0.889	> 8 µM	0.703	1.09 µM	0.46	0.243 µM	0.969	> 10 µM	0.957	> 20 µM	0.982	> 2 µM	0.976	> 5 µM	0.949	> 10 µM	0.925	> 2 µM
LB831-BLC (bladder, adherent)	0.535	1.25 µM	0.904	> 5.12 µM	0.843	7.24 µM	0.597	–	0.927	> 8 µM	0.929	> 4 µM	0.732	1.49 µM	0.922	> 10 µM	0.965	> 20 µM	0.982	> 2 µM	0.987	> 5 µM	0.953	> 10 µM	0.957	> 2 µM
LB2518-MEL (melanoma, adherent)	0.661	2.88 µM	0.944	> 5.12 µM	0.893	> 10 µM	0.96	> 5.12 µM	0.889	> 8 µM	0.943	> 4 µM	0.857	4.51 µM	0.987	> 10 µM	0.92	> 20 µM	0.965	> 2 µM	0.983	> 5 µM	0.972	> 10 µM	0.941	> 2 µM
LP-1 (myeloma, suspension)	0.423	0.639 µM	0.955	> 5.12 µM	0.85	5.67 µM	0.765	1.58 µM	0.936	> 8 µM	0.918	> 4 µM	0.941	> 5.12 µM	0.993	> 10 µM	0.974	> 20 µM	0.993	> 2 µM	0.989	> 5 µM	0.992	> 10 µM	0.989	> 2 µM
LS-513 (large intestine, adherent)	0.632	2.35 µM	0.987	> 5.12 µM	0.818	5.94 µM	0.969	> 5.12 µM	0.823	4.97 µM	0.893	> 4 µM	0.825	3.24 µM	0.981	> 10 µM	0.893	> 20 µM	0.976	> 2 µM	0.984	> 5 µM	0.982	> 10 µM	0.986	> 2 µM
LS-1034 (large intestine, adherent)	0.603	1.98 µM	0.913	> 5.12 µM	0.915	> 10 µM	0.903	> 5.12 µM	0.918	> 8 µM	0.83	2.87 µM	0.601	0.623 µM	0.985	> 10 µM	0.837	15.4 µM	0.969	> 2 µM	0.978	> 5 µM	0.985	> 10 µM	0.98	> 2 µM
LU-65 (large cell lung carcinoma, suspension)	0.821	11.5 µM	0.985	> 5.12 µM	0.976	> 10 µM	0.942	> 5.12 µM	0.953	> 8 µM	0.976	> 4 µM	0.784	2.6 µM	0.987	> 10 µM	0.965	> 20 µM	0.987	> 2 µM	0.987	> 5 µM	0.983	> 10 µM	0.986	> 2 µM
MC-CAR (haematopoietic neoplasm, suspension)	0.46	0.787 µM	0.929	> 5.12 µM	0.553	0.86 µM	0.795	2.09 µM	0.787	3.08 µM	0.97	> 4 µM	0.908	> 5.12 µM	0.989	> 10 µM	0.961	> 20 µM	0.989	> 2 µM	0.989	> 5 µM	0.985	> 10 µM	0.949	> 2 µM
